Reference: the supplement of paper PMC4604168 (melanoma cell lines)
Some of the results follow. Single values are uncertain, as repeats are few or missing.

system: RVH-421; test: cell count relative to DMSO control; melanoma cells; higher = more viable cells; conditions: library dose: standard library concentration; 72 h; first compound 2 µM
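Further: cells treated in 1,536-well plates, then fixed and DAPI-stained, with nuclei counted from automated high-throughput microscope images.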

| Compound | cell count |
| --- | --- |
| C[C@@H](N)c1ccc(C(=O)Nc2ccnc3[nH]ccc23)cc1 + CCCCCCCCc1ccc(CCC(N)(CO)CO)cc1 [fingolimod] (partner dose 10 µM) | 3.05% |
| Cn1sc(=O)n(Cc2ccccc2)c1=O + C[C@]1(O)C[C@@H](c2nc(-c3ccc4ccc(-c5ccccc5)nc4c3)c3c(N)nccn32)C1 [OSI906] (partner dose 2 µM) | 56.3% |
| Cn1sc(=O)n(Cc2ccccc2)c1=O + NC(=O)c1ccc(N(C(N)=O)c2c(F)cccc2F)nc1-c1ccc(F)cc1F [VX702] (partner dose 2 µM) | 110% |
| C[C@@H](N)c1ccc(C(=O)Nc2ccnc3[nH]ccc23)cc1 + Cn1cnc2c(F)c(Nc3ccc(Br)cc3Cl)c(C(=O)NOCCO)cc21 [selumetinib] (partner dose 0.075 µM) | 33.6% |
| CCCCCCCCCCCCCCCCCCOP(=O)([O-])OC1CC[N+](C)(C)CC1 [Perifosine] + CC(C)C[C@H](NC(=O)[C@H](Cc1ccccc1)NC(=O)c1cnccn1)B(O)O [Bortezomib] (partner dose 0.005 µM) | 6.3% |
| C[C@@H](N)c1ccc(C(=O)Nc2ccnc3[nH]ccc23)cc1 + CNC(=O)c1cc(Oc2ccc(NC(=O)Nc3ccc(Cl)c(C(F)(F)F)c3)cc2)ccn1 [sorafenib] (partner dose 2 µM) | 42.1% |
| CCCCCCCCCCCCCCCCCCOP(=O)([O-])OC1CC[N+](C)(C)CC1 [Perifosine] + C[C@]1(O)C[C@@H](c2nc(-c3ccc4ccc(-c5ccccc5)nc4c3)c3c(N)nccn32)C1 [OSI906] (partner dose 2 µM) | 83.8% |
| CCCCCCCCCCCCCCCCCCOP(=O)([O-])OC1CC[N+](C)(C)CC1 [Perifosine] + NC1(c2ccc(-c3nc4ccn5c(=O)[nH]nc5c4cc3-c3ccccc3)cc2)CCC1 [MK2206] (partner dose 2 µM) | 19.9% |
| CCCCCCCCCCCCCCCCCCOP(=O)([O-])OC1CC[N+](C)(C)CC1 [Perifosine] + O=c1[nH]nc(Sc2ncc([N+](=O)[O-])s2)n1-c1ccc2c(c1)OCCO2 [BI78D3] (partner dose 1 µM) | 86.4% |
| C[C@@H](N)c1ccc(C(=O)Nc2ccnc3[nH]ccc23)cc1 + NC1(c2ccc(-c3nc4ccn5c(=O)[nH]nc5c4cc3-c3ccccc3)cc2)CCC1 [MK2206] (partner dose 2 µM) | 55.3% |
| CCCCCCCCCCCCCCCCCCOP(=O)([O-])OC1CC[N+](C)(C)CC1 [Perifosine] + Cc1cn(-c2cc(NC(=O)c3ccc(C)c(Nc4nccc(-c5cccnc5)n4)c3)cc(C(F)(F)F)c2)cn1 [nilotinib] (partner dose 1 µM) | 109% |
| Cn1sc(=O)n(Cc2ccccc2)c1=O + CN(c1ncccc1CNc1nc(Nc2ccc3c(c2)CC(=O)N3)ncc1C(F)(F)F)S(C)(=O)=O [PF562271] (partner dose 0.4 µM) | 77.1% |
| C[C@@H](N)c1ccc(C(=O)Nc2ccnc3[nH]ccc23)cc1 + C=C(c1ccc(C(=O)O)cc1)c1cc2c(cc1C)C(C)(C)CCC2(C)C [Bexarotene] (partner dose 10 µM) | 42.6% |
| CCCCCCCCCCCCCCCCCCOP(=O)([O-])OC1CC[N+](C)(C)CC1 [Perifosine] + Cc1cc(Nc2cc(N3CCN(C)CC3)nc(/C=C/c3ccccc3)n2)n[nH]1 [ENMD2076] (partner dose 0.2 µM) | 119% |
| C[C@@H](N)c1ccc(C(=O)Nc2ccnc3[nH]ccc23)cc1 + CN(NC(=O)CC(=O)NN(C)C(=S)c1ccccc1)C(=S)c1ccccc1 [STA4783] (partner dose 0.03 µM) | 26.9% |
| Cn1sc(=O)n(Cc2ccccc2)c1=O + COc1cc(Nc2ncc(F)c(Nc3ccc4c(n3)NC(=O)C(C)(C)O4)n2)cc(OC)c1OC [Tamatinib] (partner dose 2 µM) | 108% |
| CCCCCCCCCCCCCCCCCCOP(=O)([O-])OC1CC[N+](C)(C)CC1 [Perifosine] + OCc1c[nH]c2ccccc12 [Indole-3-carbinol] (partner dose 4 µM) | 91.5% |
| C[C@@H](N)c1ccc(C(=O)Nc2ccnc3[nH]ccc23)cc1 + CS(=O)(=O)CCNCc1ccc(-c2ccc3ncnc(Nc4ccc(OCc5cccc(F)c5)c(Cl)c4)c3c2)o1 [lapatinib] (partner dose 4 µM) | 170% |
| Cn1sc(=O)n(Cc2ccccc2)c1=O + O=C(O)c1ccc(-c2c[nH]c3ncc(-c4ccccc4)cc23)cc1C1CCCC1 [GSK650394] (partner dose 0.8 µM) | 99.5% |
| Cn1sc(=O)n(Cc2ccccc2)c1=O + Cn1nnc2c(C(N)=O)ncn2c1=O [temozolomide] (partner dose 10 µM) | 77.4% |
